Assay results from the supplement of paper PMC3334620.
Over roughly 33,000 sequences, “E-score (-0.5 to 0.5)” has its median near -0.01; the highest 2% begin near 0.26. The list shows a part of the results.

Molecular target: Ste12 (UniProt P13574)
Assay: PBM E-score (8-mer binding enrichment) (E-score (-0.5 to 0.5)); higher = stronger / more preferred TF binding; most listed sequences are background and not binding sites
Conditions: protein concentration: 200 nM; construct: GST-DNA-binding domain
Procedure, shortened: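 Masliner-normalised scans of fluorescent anti-GST signal were the basis for scoring. That signal came from GST-tagged yeast transcription factors applied at about 100-200 nM to double-stranded universal all-10-mer Agilent arrays on fresh or once-stripped slides. Each ungapped eight-base word, pooled with its reverse complement, received an E-score from the Universal PBM Analysis Suite.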

Sequence | PBM E-score
AGACCACC | -0.0783
GGACCCCC | -0.214
GAGCGCGC | 0.0527
AAGTTCAT | 0.124
CACGTTGC | -0.108
AGGGAGTA | 0.00328
ACTGGCAA | 0.0278
ACCGTAAA | 0.164
AAATGTGG | 0.0717
GCGCAAAA | 0.061
AAACGTAT | 0.228
CGAGCACC | -0.0862
ACGACGAT | 0.0455
CAGGATTA | 0.0467
GTATCAAC | 0.122
ATCAAGGG | -0.0528
AAATATGG | 0.0851
CTTGGGCC | -0.153
AACTAAAG | 0.0936
AGGGAACA | -0.0746
ACTGAGAT | -0.183
CTTGTCGC | 0.126
TATCGAAA | 0.258
TACGCATA | -0.166
TCAATTGA | 0.158

Sequence | PBM E-score
CCAGCGCG | 0.129
CATCGGTC | -0.00693
GCAAGAAC | -0.11
GCGATCCC | -0.0672
GCGCCCGC | -0.107
CCCAAGAC | -0.0687
CTCTCGCA | -0.0188
AACTGAAA | 0.422
AGACCTTC | -0.0872
GCCCATCA | -0.0614
CAGAGATG | -0.052
CATCTTCA | -0.00204
CCTGACTC | -0.0895
GCATGCCC | 0.105
GGGTTGAC | -0.135
AAAAGGAG | -0.201
AGACGACG | -0.102
ATCCAGTA | 0.0766
AATTTTTG | 0.321
AATCGTGG | -0.00553
CCCTCACG | -0.11
TAGGCACA | -0.107
GTGATTTA | 0.162
TCCGGGAA | 0.0242
CAGAGATC | -0.124

Sequence | PBM E-score
CCCTTGTA | -0.108
CTACAGAA | 0.0798
ATCATCGC | -0.0896
CCTTTGTC | -0.0345
GAGCTCGA | -0.0457
ATGCCCTC | -0.154
AACGGCAC | 0.0273
CTCCGAAG | -0.0401
CAGAAATA | 0.176
CCGCTTAG | -0.0891
CCCACAGG | -0.231
AAACATTA | 0.207
CCTACAGC | -0.138
CGGCCGGA | 0.129
TCTAACCA | 0.0873
GCTCGCAC | -0.0916
AAGTCAAA | 0.151
TGAGGACA | -0.0743
AAGCACGG | -0.191
CACTCTCG | -0.0522
AAGGGCGT | -0.262
AGGTAACG | -0.0723
CATTTTCG | 0.203
ATTTTAAG | 0.161
ACAGGCTA | 0.0286

Sequence | PBM E-score
TGATTAAA | 0.158
ACCGAGAT | 0.0651
CGGTTACA | 0.192
CATTACCC | -0.00275
CGTGATAG | -0.172
CATCGCCC | -0.134
CTAAACTA | 0.0163
CCAGACAC | -0.24
CTCGGTCC | -0.0618
CGCCCAAG | -0.186
TCGAATAA | 0.195
CTCCTGAA | 0.0221
AACCGAAG | -0.119
AGACGTAA | 0.0398
AAGATACC | 0.101
CGGCTGTA | -0.184
GCCCTGCA | -0.231
GCTAGACA | -0.118
CCTGCGAG | -0.154
GGATAGAA | 0.158
CGGGAGAC | -0.0543
GCTCGGGA | -0.188
AACATATC | 0.198
ATCCCGTG | 0.0562
AGGAGCTG | -0.189

Sequence | PBM E-score
AAGGGCGA | -0.172
TCCAGGGA | -0.203
CACACTCC | -0.216
ACAGGGCG | 0.151
AGCACCCT | -0.106
GTTATGTA | 0.0944
ACTCAGGC | -0.0876
CCTGTCAA | 0.0067
AGCGCCAG | -0.178
CTGAATGC | -0.0397
ATCCATTG | 0.0269
GGCATGGA | -0.00526
CCCGTTTC | 0.274
ATCTTGGC | 0.034
GAACAGTC | -0.17
AGAAAGAG | -0.0581
CAGGATAG | 0.179
AGGTGCCC | -0.0304
ATGAACAT | -0.00042
CAAACTAG | -0.0445
CCATGCCA | 0.0169
AGTGAAAG | 0.126
CAAGGTCA | -0.181
ATTCTCGC | -0.105
AAGTAATC | -0.00766

Sequence | PBM E-score
ATGTGTGA | 0.044
ATCTTTCC | -0.0298
GATACGTA | -0.0337
CGATCCAG | -0.0277
GTTCGGCA | -0.0681
CTTCTAAA | -0.0785
TAGACTGA | 0.0201
ATCAGTTA | 0.123
CTTTTCTA | 0.161
AGGTGGAT | 0.0289
ACGATGAT | -0.182
ATGAGGTA | 0.00264
GACTAAGA | -0.0685
AAGACGTA | -0.109
AAGCGGAT | 0.158
CTAAATTC | 0.0499
CGGTTCAC | -0.207
TCCGCACA | 0.15
CGTGGCGA | 0.0181
ATAAAAAA | 0.248
GGGTACTA | 0.112
AACGTTAG | -0.0362
CACTCCTA | -0.128
CTAAGAGC | -0.0881
AACCTCGA | 0.0148

Sequence | PBM E-score
AATCAACC | -0.0533
AGAAGTGC | -0.0549
AGCAAGCT | -0.081
GTGTTCTA | 0.0632
ACGGCGTA | 0.0424
ATTTGAGA | 0.126
AAGGAACC | 0.096
AAAAGTAT | 0.178
TAATGGAA | 0.144
CGAATCAC | 0.0394
AAAATACC | 0.147
AAGACCCC | 0.00238
ACGCTGAG | -0.149
ACTCACCA | 0.0868
CGTCATAG | 0.0452
GAACATAA | 0.148
TCACCGCA | 0.0213
CCAGCTGG | -0.0532
GGGATGAC | -0.0245
AGGGCGAC | -0.286
AACCGCGA | 0.233
CGTTCAGC | -0.0215
